Reference: the RNAGym collection of RNA variant scans (doi:10.7554/elife.90254)
The source gives no read counts; variants with many changes may rest on few reads.

B1: LINE1-full (parent)
chain: UACGUAGGUGGUUUUCCCCUGAUAGUGCUAAGGGGGCCUGGAAGUUUGGACUGGGCAGAGCUCAACACAGCGUGGCAAAGUGGCUGUGGCUAGACUGCCUCUCUGGAUUCCUCGUCACUCAGCAGGGCAUCUCUGAGAGAAAUGCC

Variants of: B1
Assay: self-cleavage, relative activity (ratio to wild type); higher = more cleavage; in vitro, sequencing; the parent is a self-cleaving ribozyme

Variant	self-cleavage
A77G A107G A142G U143A	2.55
A77G A117U A138G	0.52
A77G A121U A142G	1.84
A77G A124G U134C	0.44
A77G A136G U143C	2.86
A77G A136U A141G	2.8
A77G A138G A141G	2.79
A77G C84U A107U A136U	0.36
A77G C90G U108C G114A	0.01
A77G C98A U102C U143C	0.39
A77G C98G G106U	0.15
A77G G86C A107G G144A	0.15
A77G G88A A117C A124U A141G	0.06
A77G U81A U132A	2.48
A77G U81C A117U	2.38
A77G U81C U104C	1.84
A77G U81C U115A	1.72
A77G U85A A140U U143C	0.03
A77G U85C U87A G106A U119C	0.1
A77G U85C U104A	0.41
A77G U85C U134A	0.11
A77G U87A U143A	0.13
A77G U87C C145U	0.44
A77G U91A G126A	1.34

Variant	self-cleavage
A77G U91C A117U A121G U132C	1.02
A77G U91C U119C	2.16
A77G U96C U115A	0
A77G U102C A124U	2.24
A77G U108G A142G	1.36
A77G U108G G126A	2.19
A77G U109A A117U	2.6
A77G U112C C123U	2.31
A77G U119A A142G	2.6
A77G U132C A142G	2.15
A77U A78G U81A G114A U132C	2.24
A77U A78U A117U	2.3
A77U A78U U108C	1.73
A77U A79G A136U	1.33
A77U A79U A107G A140U	2.61
A77U A92G U104A U108C U109C	0
A77U A94U A142U	0.23
A77U A107C A121G	0
A77U A107G A141G	1.02
A77U A107G G122A	2.05
A77U A136U A142G	1.1
A77U G97A U100C U130A	0.14
A77U G106A A129U	1.46
A77U U81C U104C G106U	1.38

Variant	self-cleavage
A77U U81G U102A U104C A140G	1.43
A77U U85A U102C	0.19
A77U U85C U108C G126A	0.16
A77U U87G A117G C118G A140G	0.15
A77U U96A C116U	0.03
A77U U96A G122A A140G	0
A77U U96C U108C	0.19
A77U U96C U112C U115C U134A	0
A77U U100C A129U	1.66
A77U U102C U104C U108C A136U A142G	2.3
A77U U115C A142G	1.53
A77U U119A A141U	1.18
A77U U119C A121U	1.62
A78C G83A U108C U143C	1.84
A78G A79G U96C U112G C113U	0
A78G A92G U143C	0.22
A78G A94G U119C U143G	0
A78G A117U U130C U134A C145G	2.27
A78G A121C A136G	2.04
A78G A121U G126A	0.63
A78G G83C A94G	0.27
A78G G88U U108C U130A	0.07
A78G U81A U109A	0.14
A78G U81C U85A G122C	0.03

Variant	self-cleavage
A78G U85A U87C	0
A78G U87A U112C	0.17
A78G U87C A92U U143A	0.45
A78G U87C C111A	0.08
A78G U87C U96G G122U	0.19
A78G U91A U104A U109C	0.21
A78G U96A A124C	0.07
A78G U100A C116U A138U A142U	0.07
A78G U100C A124U A138U	2.56
A78G U104A A142G	0.92
A78G U104C A141G	1.77
A78G U108C A117U	1.21
A78G U112A U115C A129G	0
A78G U112C A136U	2.28
A78G U115A C116A	1
A78G U115A U134C	1.49
A78G U115C A136G	1.44
A78G U119A A121U	0.81
A78G U130C A136G	2.07
A78G U132C A136G	0.31
A78G U132C A142G	1.73
A78G U134G C145U	1.32
A78U A107U A136U	0.99
A78U A117U U119A	1.85

Variant	self-cleavage
A78U A129G A140G	2.53
A78U A129U U134A	1.63
A78U C84U A142G	0.05
A78U C103U A136G A141G	1.48
A78U U81A U112C	2.19
A78U U81A U119C A141G	2.93
A78U U87C U100A U134C	0.1
A78U U96A U104C	0.09
A78U U100A A107G U115A U119A	2.61
A78U U108A U112A	0
A78U U109C G127A A142G	0.47
A78U U109C U115C	2.04
A78U U112A A124U A136G A141G	2.53
A78U U115C A121G U143A	0
A78U U115G A141U	2.61
A78U U119A A129G	2.94
A79C A94U U112C	0.34
A79C A136U A141G	0
A79C U119C U132C	1.31
A79G A94G A141G	0
A79G A94U U115A	0.46
A79G A107G A129U	0.16
A79G A121G A142G	2.3
A79G A121U C123U	0.97

Variant	self-cleavage
A79G A138G A142G	1.02
A79G A140G G144A	1.3
A79G C90U A121G	0.06
A79G C103A U119A	1.69
A79G C113A U134C	0.82
A79G C118A U130C	1.08
A79G G86A U102C A136U	0.13
A79G G86C U143A	0.16
A79G G106C U108C C146U	1.15
A79G G125C A141C	1.58
A79G U81A A136G A138U	1.96
A79G U81A U102C	0.68
A79G U85A U104A A138G	0
A79G U85A U108C U130C	0
A79G U85C U102C	0.32
A79G U85C U112A	0.14
A79G U87A U112A A117C C146U	0.07
A79G U87A U130C U143C	0
A79G U87C A107G U119C U134A	0
A79G U91A C118A A141G	0.42
A79G U96C A124G G125U	0
A79G U96C C111U U115C	0.14
A79G U102C A129U A138G C146U	0.61
A79G U104C A138G	0.9

Variant	self-cleavage
A79G U109C C111U	0.71
A79G U112C C131A	0.48
A79G U115A A121G	2.09
A79G U119C U130A A138G C146G	2.04
A79G U130C A138U	1.47
A79G U132A A136G	1.52
A79G U134C A140G	1.53
A79U A92G U104C A138G	0.26
A79U A92G U143C	0
A79U C84A U130C	0.06
A79U C110A U143C	0.8
A79U U81G G82A U91A C103A A121G	1.22
A79U U85C U102C U130C	0
A79U U96A C110U	0.07
A79U U96C A141G	0.12
A79U U104C U112A A124U A140U	2.17
A79U U109C A141G	1.88
A79U U112C A142U U143G	1.74
A79U U112C U130C	2.7
A79U U130A A142G	2.1
G80A A138G A141G	1.95
G80A U91A A138U	0.66
U81A A92C U134C	0.37
